According to PubChem BioAssay AID1963576 (National Center for Advancing Translational Sciences (NCATS), 2024):
Screen size: about 46,000 compounds; about 60 (0.1%) were called active. Another 3% or so got no clear call; they are omitted. Calls follow the shape of the dose curve; as a rule, active = well fitted inhibition curve with a large enough effect; inconclusive = small, poorly fitted or top-dose-only effect; inactive = no such curve, though single readings can be large or run the other way. This is one part of the list.

assay: Primary qHTS assay for Inhibitors of ovarian cancer metastasis using an organotypic tumor microenvironment (TME) model.; also: nearly all actives have a fitted effect of over 65% in size;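 as to activity change, negative = inhibition: plate controls were DMSO wells for no effect and tomatine positive control wells for full effect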; conditions: SKOV3ip1-GFP adhesion/invasion on 3D omental model, fluorescence; series mostly up to 45.8 µM; activity change, negative = inhibition: at the top concentration
Method in brief: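 Adhesion/invasion was scored as fixed GFP-labeled SKOV3ip1 cell counts (488/509 nm), normalized to DMSO and tomatine controls. Cancer cells in serum-free medium, with four compound doses (0.36-46 umol/L), sat 2 hr at RT then 16 hr at 37 C on a 48 hr fibroblast/mesothelial/ECM culture.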

Activity change, negative = inhibition, inactive:
CCCc1nn2c(=O)cc(COC(=O)c3ccc(NC(=O)COc4ccccc4F)cc3)nc2s1 -7.32%
Cc1ccc(S(=O)(=O)N2CCc3cc(C(=O)Nc4ccc(Cl)cc4C)ccc32)cc1 11.9%
CCOc1ccc(CCNCc2c(C(=O)O)c(C)n(Cc3ccccc3F)c2C)cc1 -1.35%
O=S(=O)(NCCc1csc2nc(-c3ccccc3)nn12)c1ccc(Oc2ccccc2)cc1 -10.3%
Cc1cccn2c(=O)c(C(=O)N3CCN(c4ccc(Cl)cc4)CC3)cnc12 -4.03%
COc1cc(C2C(C(=O)Nc3ccccc3C)=C(C)Nc3nc(SCc4cc(C)ccc4C)nn32)ccc1O (stereo unspecified) -12.8%
Cc1ccc(-n2nnnc2CNC(=O)C2CC(=O)N(c3ccccc3)C2)cc1C (stereo unspecified) 10.3%
Cc1ccc(Cl)cc1N1CCN(C(=O)c2noc3c2CCCC3)CC1 0.214%
CCOC(=O)c1cc2c(=O)n3ccccc3nc2n(Cc2ccco2)c1=NC(=O)c1cccc(Br)c1 -14%
CCc1ccc(CN(Cc2ccco2)C(=O)c2cc(-c3ccc(C)c(F)c3)on2)cc1 6.88%
CCOc1ccc(NC(=O)Cn2cc(C(=O)c3ccc(C)cc3)c(=O)c3cc4c(cc32)OCO4)cc1 -4.31%
CCOCCc1nn2c(=O)cc(COC(=O)c3ccccc3NC(=O)c3ccc(C)cc3)nc2s1 -3.45%
CCn1cc2nc(SCC(=O)Nc3ccc(OC)cc3OC)n(Cc3ccc(Cl)cc3)c(=O)c2n1 8.48%
CCCCN(C)c1nnc(NC(=O)Nc2ccc(Br)c(C)c2)s1 2.21%
Nc1cc(C(Cl)=C(Cl)Cl)c(S(N)(=O)=O)cc1S(N)(=O)=O -6.5%
Fc1ccccc1N1CCN(c2ncnc3c2nc2n3CCCC2)CC1 0.511%
Cc1ccc(F)cc1S(=O)(=O)N1CCC(c2nc3ccccc3s2)CC1 16.9%
CCCn1c(=O)c2sccc2n2c(CCCC(=O)NC3CCCCC3)nnc12 -17%
O=C(CNS(=O)(=O)c1cccs1)N1CCN(c2ccccc2F)CC1 29.2%
Cc1ccc2nc3c(c(Nc4ccc(C)c(C)c4)c2c1)CCC3 -14.1%
Brc1cccc(-c2nnn3c2nc(N2CCCCC2)c2ccccc23)c1 9.35%
CCn1c2c(c(=O)n3ncc(C(=O)Nc4ccc(Cl)cc4C)c13)CN(Cc1ccc(OC)cc1)CC2 5.66%
Cc1ccccc1Nc1c(-c2c[nH]c3ccccc23)nc2cccc(C)n12 -7.35%
COc1ccc(C2C=C(c3ccc(Cl)cc3)Nc3nc(NC(=O)CCC(=O)O)nn32)cc1 (stereo unspecified) -2.58%
Cc1ccccc1Cn1c(C)c(CNCCCc2ccccc2)c(C(=O)O)c1C 0.925%
O=C(Nc1ccc(F)cc1Cl)c1cnc(N2CCOCC2)c2ccccc12 -9.94%
CCCOc1cccc(C(=O)N2CCCCC2CCN2CCCCC2)c1 (stereo unspecified) 4.47%
Cc1ccc(N(Cc2cccs2)C(=O)c2ccccc2[N+](=O)[O-])cc1 -12.7%
COc1ccc(-c2csc3nc(-c4ccc(C)cc4)oc(=O)c23)cc1OC -1.69%
O=c1c2sc3ccccc3c2n(Cc2ccc(Cl)cc2)c(=O)n1Cc1ccco1 11%
COc1ccc(CNC(=O)CC2Oc3ccc(C)cc3NC2=O)cc1 (stereo unspecified) -2.67%
Cc1ccccc1NC(=O)CCn1nc(-c2ccc(Cl)cc2)c2ccccc2c1=O -19%
Cc1cccc(Cn2c(CN3CCCC(C)C3)nc3c2c(=O)n(C)c(=O)n3C)c1 (stereo unspecified) 0.746%
COc1ccc(CCNc2nc(SCc3cccc(Cl)c3)nc3ccccc23)cc1OC -2.4%
CCOc1ccc(CCNC(=O)c2nn(C)c3c2CSc2ccc(C)cc2-3)cc1OCC 5.97%
COC(=O)c1cc2oc3ccccc3c2n1CC(=O)Nc1ccc(F)c(Cl)c1 -9.09%
COc1cccc(CC(=O)Nc2ccc3nc(Nc4cccc(C(F)(F)F)c4)cc(C)c3c2)c1 -2.12%
Cc1ccc(S(=O)(=O)N2CCc3cc(C(=O)Nc4c(C)cccc4C(C)C)ccc32)cc1 10.4%
Cc1ccc(Cl)cc1NC(=O)Cn1c(SCC(=O)NCc2ccccc2)nc2ccccc21 0.146%
CCc1nonc1NC(=O)c1oc2ccc(Cl)cc2c1C -10.7%
CCOC(=O)c1cc(OC(=O)c2cc(OC)cc(OC)c2)n(-c2ccccc2)n1 -3.06%
Clc1ccc2nc(-c3cccs3)c(Nc3ccc4c(c3)OCCO4)n2c1 5.63%
COCCCNC(=O)c1ccc(-n2c(-c3ccccc3)cc3c2CCCCC3)cc1 -28.7%
O=C(NCc1ccccc1)c1nc(-c2ccc(Cl)cc2)n2c1CCCCC2 3.29%
CC1Cc2cc(S(=O)(=O)NCc3ccccc3)ccc2N1C(=O)C1CCC1 (stereo unspecified) -18.7%
O=C(Cn1c(-c2cccs2)cc2cc(Cl)ccc21)N1CCCCC1 9%
CN1CCN(c2c(F)cc3c(=O)c(C(=O)O)cn(CCF)c3c2F)CC1 -13.7%
Cc1ccc2c(c1)c1c(c(=O)n(-c3ccccc3)c(=O)n1CC(=O)c1ccc(Cl)cc1)n2C -6.58%
Cc1ccc2nc(/C(C#N)=C/c3ccc(-c4ccc(C(=O)OC(C)C)cc4)o3)[nH]c2c1 -20.1%
Cn1c(=O)n(C)c2cc(N3CCOCC3)c(NS(=O)(=O)c3ccc(F)cc3)cc21 6.16%

outcome, inactive:
CCN(CC)c1ccc(NC(=O)CCc2c(C)nc3ncnn3c2C)c(C)c1
COc1ccc(Cl)cc1NC(=O)Cn1nnc2sc(-c3ccccc3)cc2c1=O
COc1ccc(CCNC(=O)CCCCn2c(=O)c3ccccc3n(Cc3ccccc3)c2=O)cc1OC
CCC(C)NC(=O)Cn1c(=O)c2cccn2c2ccc(F)cc21 (stereo unspecified)
COc1cccc(CNC(=O)c2cc(=O)[nH]c3ccc(S(=O)(=O)N4CCCC4)cc23)c1
CCOC(=O)c1c(NC(=O)CSc2cn(CCNC(=O)c3ccc(OCC)cc3)c3ccccc23)sc2c1CCC2
CC1=C(C(=O)OC2CCCCCC2)C(c2ccc(Cl)cc2Cl)CC(=O)N1 (stereo unspecified)
Cc1ccc(NC(=O)C2CCCN(S(=O)(=O)c3ccc4c(c3)CCCC(=O)N4)C2)cc1N(C)C (stereo unspecified)
Cc1ccc(C)c(NC(=O)Cn2c(=O)n(CCCS(=O)(=O)C3CCCCC3)c(=O)c3ccccc32)c1
COc1ccc(Cl)cc1C(=O)NCC(c1ccc(N(C)C)cc1)N1CCCC1 (stereo unspecified)
Cc1ccc(-c2ccc(CCC(=O)O)n2-c2ccc(C)c(Cl)c2)cc1
